# Measurements reported in the supplement of paper PMC11417369.
# Some of the results follow.
# Test system: PfHDP1 homeodomain (GST-tagged)
# Test: gcPBM binding intensity (ln(normalized median fluorescence intensity)); higher = stronger DNA binding
# In short: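 Probes on an Agilent 4 × 180k array were primer-extended, double-stranded and 36 bp long, taken from intergenic genomic regions, with negative controls added. GST-tagged P. falciparum DNA-binding domains from E. coli, about 25 μg on average, were applied to the array for 1 h in 1× PBS containing 1% milk, 0.2 mg/ml BSA, 0.5% salmon testes DNA and 0.03% Triton X-100. Binding intensity, obtained after Alexa488 anti-GST antibody detection and a 488 nm scan, is the highest Masliner-normalised natural-log median intensity across replicate spots of either probe orientation.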
row,Sequence,gcPBM binding intensity (ln)
1,AGGTTCTTTTTAAATGGTACACATAATTTGAAGATA [XGTACX_site400],6.57
2,TCTTAAAAGGGGAATGGAATGGAGAAAATGAAATAA [GTGCAC_negctrl_site30],6.51
3,AATATTTTCTTGTACGCATGCACATCCAAATTATAT [TGCATGCA_site873],7.81
4,TGACCTGTTCAGGTAACACACATATAAACACATACA [CACACA_site4186],6.86
5,ATATATTAATAATTTTGTACGCATTTCCTTTTTATT [XGTACX_site1638],6.86
6,GAAAATATTTCCGTATGTACTTATTTTAGTCTACTA [XGTACX_site471],6.06
7,AAAAAAAAAAAAAAATGTACAAATAAAGAAATATGA [XGTACX_site4371],6.45
8,CTTTTTATTTAGAACACACACAAAAAAAAAAAAAAA [CACACA_site1761],6.4
9,ATACATAAATATATATGTACATATATATATATATAT [XGTACX_site1055],9.19
10,TGCAGTCTGGAGAAACGTACATAGTATCTGGTAGCT [XGTACX_site4937],6.26
11,AAAATATATTTAAATTGTACACGTTACCATAACAAT [XGTACX_site2598],6.75
12,ATGAATACAAAATTATACAAAATTATCAAAAGTATG [CACACA_negctrl_site1453],6.26
13,TAATTCTAAATAAATGTACACACAAAAATAAATGTA [CACACA_site8509],6.64
14,CTATTTTATATGTGCACACATATACACCCACAAATA [CACACA_site1131],10.1
15,TTGATAAAATGGGAGAAATTAAAAAGGAAAAAAAAA [CACACA_negctrl_site1279],5.77
16,TTATAAAATTTTCTTCTATATTTTAATTATTCTCAT [TGCATGCA_negctrl_site571],6.42
17,TATATATATATTATATGTACATAAATATTTATACTC [XGTACX_site114],8.24
18,ATTAAAAGAACCAAGTGTACATTCTATATATAAAAA [XGTACX_site4260],6.34
19,TATACAATATATTTTGGTACACAAACAAAAAAATAT [XGTACX_site2522],6.55
20,ATATTATGATCTATTTTTATATTCTATTTGATAAAT [CACACA_negctrl_site1070],6.47
21,GTTCACCAAAGGTAACGTACACAAACATATATATAT [XGTACX_site1073],8.66
22,GAAAAAGACAAAAGGTGTACAATATGAAATATATAT [XGTACX_site373],6.81

row,Sequence,gcPBM binding intensity (ln)
1,TATGATTTTAACAACTGTACAATATAATAAATCTAA [XGTACX_site2198],6.15
2,TGGGTCTCTAACTGGTGTACTATTTACATATTATAC [XGTACX_site8593],6.86
3,TAAAAGAAAAATTAGTGTACCAATATTAACATAAAA [XGTACX_site5474],6.09
4,ATATATTTTTAATTACGTACTTAATAATATATACAA [XGTACX_site3285],6.43
5,TCTCATAGGAAACACACACACACACCCACATATATA [CACACA_site1738],6.97
6,TAAATAAAAAAAAAAAGTACATACATACAAACATAT [XGTACX_site4427],6.52
7,ATATATGTGCGCGTATGTACATAAAATAAATATACA [XGTACX_site2689],7.55
8,ATATATTTTTTAAATTTAAAAATTATAAAATTTATA [TGCATGCA_negctrl_site36],6.53
9,AAACGATCTCGATGTTGTACACATTTATATAGAAAC [XGTACX_site4373],7.26
10,CATGTGTGTATAATTTGTACATATACATAATAAATA [XGTACX_site2418],6.57
11,CTAAACTAAACAAACTGTACACAAATAAAACAATAA [XGTACX_site8880],6.99
12,TACTAAAATATATATATGCAACATGAGATATTCAAC [XGTACX_negctrl_site283],7.19
13,ATATCAACTGAATTGTATAGGCGATAAAAGAAAAAA [CACACA_negctrl_site1334],6.58
14,ATATAAATATATGTATGTACACATTTTTTTTTTTTT [XGTACX_site247],6.47
15,AGAATTATAAATTATAGTACATAAAATTTTGATGTA [XGTACX_site5726],6.4
16,AAGTTTATTATATATAAATTATTATATATATATATA [CACACA_negctrl_site189],9.02
17,AAAATAATAATTAAATAATAGTAAATGAAAAATAAA [CACACA_negctrl_site57],6.63
18,ACTTCATTTTATAAGTGTACATAATTTGTTTATATA [XGTACX_site5453],6.62
19,TATGTGTTCAGTATTGCACACACACTCCAAAATAAA [CACACA_site8018],10.2
20,ATAAATACTAGGCACACACACATATAGATTTATATA [CACACA_site7064],6.8
21,GTTGTCCCCCTTTCTATGCACACTTTAAATTATTCA [CACACA_site52],9.08
22,ATTCTAATAGATAGTAGTACCTATAAGTTTTCTTTT [XGTACX_site2315],6.02
